Measurements from paper PMC5501830.
Results are given in words; binding and its absence hold for the method and conditions named. In cells and extracts the contact can be indirect. Some results given as binding are weak or reduced against the parent protein; the word gives no strength.

Protein sequences, listed by entry. Tags and fused reporters are not part of them. Lines headed by an entry give the natural chain unless they say otherwise; changes in a name come on top.
UniProt Q9BXW9: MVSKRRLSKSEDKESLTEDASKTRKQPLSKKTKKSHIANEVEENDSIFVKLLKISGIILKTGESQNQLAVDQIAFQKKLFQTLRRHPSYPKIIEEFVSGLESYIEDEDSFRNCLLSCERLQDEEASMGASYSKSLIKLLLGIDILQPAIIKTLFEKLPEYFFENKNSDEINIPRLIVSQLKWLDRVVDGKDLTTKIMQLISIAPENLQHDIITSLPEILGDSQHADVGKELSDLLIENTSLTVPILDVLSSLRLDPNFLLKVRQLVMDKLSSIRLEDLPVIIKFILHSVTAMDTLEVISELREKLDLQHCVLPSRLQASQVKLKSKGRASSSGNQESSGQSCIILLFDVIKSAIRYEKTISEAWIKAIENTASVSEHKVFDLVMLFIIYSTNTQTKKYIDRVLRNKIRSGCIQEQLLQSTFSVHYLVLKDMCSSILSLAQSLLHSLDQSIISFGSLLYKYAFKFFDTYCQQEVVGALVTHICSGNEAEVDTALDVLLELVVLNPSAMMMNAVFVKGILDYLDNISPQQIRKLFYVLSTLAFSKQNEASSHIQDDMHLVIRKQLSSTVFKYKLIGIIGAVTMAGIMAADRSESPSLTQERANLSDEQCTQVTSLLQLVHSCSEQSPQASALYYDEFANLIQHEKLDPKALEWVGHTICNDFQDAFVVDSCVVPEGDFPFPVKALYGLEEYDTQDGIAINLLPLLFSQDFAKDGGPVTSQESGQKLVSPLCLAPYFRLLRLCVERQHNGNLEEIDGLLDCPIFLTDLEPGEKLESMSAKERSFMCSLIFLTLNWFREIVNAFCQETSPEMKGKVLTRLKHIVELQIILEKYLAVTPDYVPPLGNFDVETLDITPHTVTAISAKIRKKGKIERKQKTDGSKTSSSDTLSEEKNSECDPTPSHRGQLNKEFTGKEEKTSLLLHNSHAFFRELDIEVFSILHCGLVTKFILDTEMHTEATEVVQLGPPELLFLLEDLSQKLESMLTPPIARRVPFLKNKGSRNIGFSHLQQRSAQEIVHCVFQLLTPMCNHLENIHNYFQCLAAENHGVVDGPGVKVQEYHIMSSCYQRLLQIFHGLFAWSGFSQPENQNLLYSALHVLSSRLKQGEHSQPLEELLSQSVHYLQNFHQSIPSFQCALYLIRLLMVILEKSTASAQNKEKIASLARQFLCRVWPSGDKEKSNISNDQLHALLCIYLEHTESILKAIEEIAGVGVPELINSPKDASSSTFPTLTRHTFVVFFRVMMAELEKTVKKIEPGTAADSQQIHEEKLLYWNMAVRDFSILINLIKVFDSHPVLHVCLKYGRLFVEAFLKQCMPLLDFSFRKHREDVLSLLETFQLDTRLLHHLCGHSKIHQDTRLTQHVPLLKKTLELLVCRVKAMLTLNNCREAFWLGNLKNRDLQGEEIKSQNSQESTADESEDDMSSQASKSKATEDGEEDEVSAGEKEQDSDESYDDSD
UniProt P25705: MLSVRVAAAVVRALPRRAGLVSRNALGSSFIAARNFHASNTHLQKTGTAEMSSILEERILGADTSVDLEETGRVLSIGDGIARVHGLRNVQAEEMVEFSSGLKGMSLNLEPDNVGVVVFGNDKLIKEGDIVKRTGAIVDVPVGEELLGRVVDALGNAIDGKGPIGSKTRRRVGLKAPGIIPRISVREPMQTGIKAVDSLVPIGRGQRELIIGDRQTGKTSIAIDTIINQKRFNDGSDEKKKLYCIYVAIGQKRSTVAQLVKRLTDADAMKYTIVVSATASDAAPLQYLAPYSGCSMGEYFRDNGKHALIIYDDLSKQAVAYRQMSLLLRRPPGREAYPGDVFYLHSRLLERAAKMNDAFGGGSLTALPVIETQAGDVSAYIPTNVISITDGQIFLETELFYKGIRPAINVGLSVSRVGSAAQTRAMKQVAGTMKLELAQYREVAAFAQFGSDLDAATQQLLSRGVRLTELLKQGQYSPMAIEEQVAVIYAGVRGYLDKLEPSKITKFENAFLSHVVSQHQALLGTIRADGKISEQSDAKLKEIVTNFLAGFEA

Experiments:
Experiment in all cases: co-IP; 293T cells co-transfected with GFP-ATP5α (or its deletion constructs) and Flag-FANCD2; lysate 48 hr after transfection; reverse IP with anti-Flag and anti-GFP antibodies, protein A-sepharose, Western blot
[1] = molecular target: Flag-wtFANCD2 (UniProt Q9BXW9)
[2] = molecular target: GFP-mtATP5α (Δ42-72aa) (human) (UniProt P25705)
[3] = molecular target: GFP-ATP5α (human) (UniProt P25705)
[4] = molecular target: GFP-mtATP5α (Δ11-135aa) (human) (UniProt P25705)

Row | binding [1] | binding [2] | binding [3] | binding [4] | Substance
1 | no binding |  |  |  | GFP-mtATP5α (Δ11-135aa) (from UniProt P25705 44-553)
2 | binds |  |  |  | GFP-ATP5α (from UniProt P25705 44-553)
3 |  | no binding | binds | no binding | Flag-wtFANCD2 (from UniProt Q9BXW9 1-1451)
4 | no binding |  |  |  | GFP-mtATP5α (Δ42-72aa) (from UniProt P25705 44-553)
